Results reported in US20120100139A1 (APTEVO RESEARCH AND DEVELOPMENT, published 2012).

T1: CD80-mIg (Ancell Catalog #510-020) (UniProt P33681 35-242)
T1 construct: Bought reagent; also called CD80-mIgG; sCD80
T1 sequence (looked up): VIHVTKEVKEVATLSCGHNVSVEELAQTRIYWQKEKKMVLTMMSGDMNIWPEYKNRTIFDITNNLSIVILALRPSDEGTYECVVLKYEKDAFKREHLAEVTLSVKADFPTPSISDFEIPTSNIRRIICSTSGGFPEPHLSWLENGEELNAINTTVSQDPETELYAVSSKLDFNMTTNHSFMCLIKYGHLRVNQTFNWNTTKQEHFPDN

T2: soluble IL-10 receptor 1 (IL-10R1, R&D Systems) (human, UniProt Q13651 22-235)
T2 construct: Bought soluble receptor; also called sIL10Ra; sIL10R1
T2 sequence (looked up): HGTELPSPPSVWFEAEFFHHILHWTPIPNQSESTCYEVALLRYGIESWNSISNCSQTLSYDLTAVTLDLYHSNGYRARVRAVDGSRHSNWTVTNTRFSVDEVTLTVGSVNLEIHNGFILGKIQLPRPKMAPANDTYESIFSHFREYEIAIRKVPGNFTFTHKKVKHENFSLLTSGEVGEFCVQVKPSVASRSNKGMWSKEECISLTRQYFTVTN

T3: CD86 on cells (WIL2-S human B-lymphoblastoid cells; HuCD86-2A2 CHO cells expressing CD86) (human, UniProt P42081 24-329)
T3 construct: whole, on cells; also called cell surface CD86
T3 sequence (looked up): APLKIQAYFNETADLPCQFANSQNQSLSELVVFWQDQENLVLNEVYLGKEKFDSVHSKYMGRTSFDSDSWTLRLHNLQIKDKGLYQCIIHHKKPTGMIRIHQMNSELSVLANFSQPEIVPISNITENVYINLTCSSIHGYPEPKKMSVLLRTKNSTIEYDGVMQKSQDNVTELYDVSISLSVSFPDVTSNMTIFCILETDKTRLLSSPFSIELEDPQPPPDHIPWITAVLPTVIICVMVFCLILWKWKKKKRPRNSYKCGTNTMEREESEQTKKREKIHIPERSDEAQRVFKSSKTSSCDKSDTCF

T4: Murine CD86-mIgG (R&D Systems, Inc) (murine, UniProt P42082 24-244, limits assumed)
T4 construct: also called muCD86
T4 sequence (looked up): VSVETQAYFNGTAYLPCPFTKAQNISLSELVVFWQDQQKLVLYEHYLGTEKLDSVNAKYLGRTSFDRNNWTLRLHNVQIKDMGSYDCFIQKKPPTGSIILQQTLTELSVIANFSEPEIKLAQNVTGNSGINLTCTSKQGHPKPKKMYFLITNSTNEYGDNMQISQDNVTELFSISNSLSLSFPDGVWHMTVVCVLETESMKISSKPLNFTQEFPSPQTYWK

B1: (CTLA4::IL10)-65 xceptor (Fc fusion)
chain: [about 120 residues not spelt out]EPKSSDKTHTCPPCPAPEAAGAPSVFLFPPKPKDTLMISRTPEVTCVVVDVSHEDPEVKFNWYVDGVEVHNAKTKPREEQYNSTYRVVSVLTVLHQDWLNGKAYACAVSNKALPAPIEKTISKAKGQPREPQVYTLPPSRDELTKNQVSLTCLVKGFYPSDIAVEWESNGQPENNYKTTPPVLDSDGSFFLYSKLTVDKSRWQQGNVFSCSVMHEALHNHYTQKSLSLSPGQRHNNSSLNTRTQKARHSPNSSPGQGTQSENSCTHFPGNLPNMLRDLRDAFSRVKTFFQMKDQLDNLLLKESLLEDFKGYLGCQALSEMIQFYLEEVMPQAENQDPDIKAHVNSLGENLKTLRLRLRRCHRFLPCENKSKAVEQVKNAFNKLQEKGIYKAMSEFDIFINYIEAYMTMKIRN
notes: CTLA4 ectodomain - Fc - linker - IL10; also called CTLA4/IL10 Xceptor
B2: (CTLA4::IL10)-68 xceptor (Fc fusion)
chain: [about 120 residues not spelt out]EPKSSDKTHTCPPCPAPEAAGAPSVFLFPPKPKDTLMISRTPEVTCVVVDVSHEDPEVKFNWYVDGVEVHNAKTKPREEQYNSTYRVVSVLTVLHQDWLNGKAYACAVSNKALPAPIEKTISKAKGQPREPQVYTLPPSRDELTKNQVSLTCLVKGFYPSDIAVEWESNGQPENNYKTTPPVLDSDGSFFLYSKLTVDKSRWQQGNVFSCSVMHEALHNHYTQKSLSLSPGNSLFNQEVQIPLTESYSPNSSPGQGTQSENSCTHFPGNLPNMLRDLRDAFSRVKTFFQMKDQLDNLLLKESLLEDFKGYLGCQALSEMIQFYLEEVMPQAENQDPDIKAHVNSLGENLKTLRLRLRRCHRFLPCENKSKAVEQVKNAFNKLQEKGIYKAMSEFDIFINYIEAYMTMKIRN
B3: muCTLA4-Ig (murine CTLA4 fusion to human Fc domain) (Fc fusion)
chain: [about 120 residues not spelt out]EPRVPITQNPCPPLKECPPCAAPDAAGAPSVFIFPPKIKDVLMISLSPMVTCVVVDVSEDDPDVQISWFVNNVEVHTAQTQTHREDYNSTLRVVSALPIQHQDWMSGKAFACAVNNRALPSPIEKTISKPRGPVRAPQVYVLPPPAEEMTKKEFSLTCMIAGFLPAEIAVDWTSNGRTEQNYKNTATVLDSDGSYFMYSKLRVQKSTWERGSLFACSVVHEGLHNHLTTKTISRSLGK
B4: CTLA4::monoIL10 xceptor (Fc fusion)
chain: [about 120 residues not spelt out]EPKSSDKTHTCPPCPAPEAAGAPSVFLFPPKPKDTLMISRTPEVTCVVVDVSHEDPEVKFNWYVDGVEVHNAKTKPREEQYNSTYRVVSVLTVLHQDWLNGKAYACAVSNKALPAPIEKTISKAKGQPREPQVYTLPPSRDELTKNQVSLTCLVKGFYPSDIAVEWESNGQPENNYKTTPPVLDSDGSFFLYSKLTVDKSRWQQGNVFSCSVMHEALHNHYTQKSLSLSPGNSLFNQEVQIPLTESYSPNSSPGQGTQSENSCTHFPGNLPNMLRDLRDAFSRVKTFFQMKDQLDNLLLKESLLEDFKGYLGCQALSEMIQFYLEEVMPQAENQDPDIKAHVNSLGENLKTLRLRLRRCHRFLPCENGGGSGGKSKAVEQVKNAFNKLQEKGIYKAMSEFDIFINYIEAYMTMKIRN
B5: CTLA4::IL10 I87A xceptor (Fc fusion)
chain: [about 120 residues not spelt out]EPKSSDKTHTCPPCPAPEAAGAPSVFLFPPKPKDTLMISRTPEVTCVVVDVSHEDPEVKFNWYVDGVEVHNAKTKPREEQYNSTYRVVSVLTVLHQDWLNGKAYACAVSNKALPAPIEKTISKAKGQPREPQVYTLPPSRDELTKNQVSLTCLVKGFYPSDIAVEWESNGQPENNYKTTPPVLDSDGSFFLYSKLTVDKSRWQQGNVFSCSVMHEALHNHYTQKSLSLSPGNSLFNQEVQIPLTESYSPNSSPGQGTQSENSCTHFPGNLPNMLRDLRDAFSRVKTFFQMKDQLDNLLLKESLLEDFKGYLGCQALSEMIQFYLEEVMPQAENQDPDAKAHVNSLGENLKTLRLRLRRCHRFLPCENKSKAVEQVKNAFNKLQEKGIYKAMSEFDIFINYIEAYMTMKIRN
notes: also called CTLA4::IL10187A
B6: CTLA4::IL10 I87S xceptor (Fc fusion)
chain: [about 120 residues not spelt out]EPKSSDKTHTCPPCPAPEAAGAPSVFLFPPKPKDTLMISRTPEVTCVVVDVSHEDPEVKFNWYVDGVEVHNAKTKPREEQYNSTYRVVSVLTVLHQDWLNGKAYACAVSNKALPAPIEKTISKAKGQPREPQVYTLPPSRDELTKNQVSLTCLVKGFYPSDIAVEWESNGQPENNYKTTPPVLDSDGSFFLYSKLTVDKSRWQQGNVFSCSVMHEALHNHYTQKSLSLSPGNSLFNQEVQIPLTESYSPNSSPGQGTQSENSCTHFPGNLPNMLRDLRDAFSRVKTFFQMKDQLDNLLLKESLLEDFKGYLGCQALSEMIQFYLEEVMPQAENQDPDSKAHVNSLGENLKTLRLRLRRCHRFLPCENKSKAVEQVKNAFNKLQEKGIYKAMSEFDIFINYIEAYMTMKIRN
notes: also called CTLA4::IL10187S

Legend:
[1] = target: T1, CD80-mIg (Ancell Catalog #510-020); assay: SPR (BIAcore T100), CD80-mIgG immobilized on CM5; bivalent analyte model, first site
Experimental: (§1) Surface plasmon resonance (SPR) measurements were performed on a BIAcore™ T100 SPR (Pharmacia Biotech AB, Uppsala) using HBS-EP+ (GE Healthcare) as a running buffer. […] CTLA4-containing constructs were injected for 150 seconds, at a flow rate of 10 μl/min, in a series of concentrations from 5 nM to 1 μM. Dissociation was monitored for 600 seconds, and the surface was regenerated by injecting 50 mM sodium citrate, 500 mM sodium chloride, pH 4.0, for 60 seconds. […] Data were analyzed using BiaEvaluation for the T100 software (version 2.0.1, GE Healthcare).

[2] = target: T2, soluble IL-10 receptor 1 (IL-10R1, R&D …); assay: SPR (BIAcore T100), IL-10R1 immobilized on CM5; calculated from ka1 and kd1
[3] = target: T2, soluble IL-10 receptor 1 (IL-10R1, R&D …); assay: SPR (BIAcore T100), IL-10R1 immobilized on CM5; bivalent analyte model, first site
[4] = target: T3, CD86 on cells (WIL2-S human …); assay: flow cytometry on CD86-expressing CHO cells
Experimental: (§2) Briefly, WIL2-S or HuCD86-2A2 cells were incubated with test molecules containing a CD86 antagonist at concentrations ranging from saturation to background levels. […] After the incubation, cells were washed and a fluorophore (R-phycoerythrin) tagged F(Ab′)₂ antibody specific for the Fc portion of the xceptor molecule, IL10R-Ig fusion protein, or anti-IL10 antibody. The tagged cells were then passed through a flow cytometer and data was analyzed by plotting median fluorescence intensity of each sample.

[5] = target: T1, CD80-mIg (Ancell Catalog #510-020); assay: SPR (BIAcore T100), CD80-mIgG immobilized on CM5; steady-state equilibrium fit
Experimental: as §1

[6] = target: T1, CD80-mIg (Ancell Catalog #510-020); assay: SPR (BIAcore T100), CD80-mIgG immobilized on CM5; bivalent analyte model, second site
Experimental: as §1

[7] = target: T2, soluble IL-10 receptor 1 (IL-10R1, R&D …); assay: ELISA, sIL10Ra (FIG. 12); also simultaneous with CD80 (FIG. 13)
[8] = target: T4, Murine CD86-mIgG (R&D Systems, Inc); assay: SPR (BIAcore T100), murine CD86-mIgG immobilized on CM5; bivalent analyte model, first site
Experimental: (§3) SPR measurements were performed on a BIAcore™ T100 SPR (Pharmacia Biotech AB, Uppsala) using HBS-EP+ (GE Healthcare) as a running buffer. Murine CD86-mIgG (25 μg/mL in 10 mM sodium acetate, pH 4.0, R&D Systems, Inc) was directly immobilized onto a CM5 chip using standard amine coupling chemistry (Biacore Amine Coupling Kit, GE Healthcare), with final immobilization levels of 150, 493, and 746 Ru. CTLA4-containing constructs were injected for 150 seconds, at a flow rate of 10 μl/min, in a series of concentrations from 4 nM to 8 μM. Dissociation was monitored for 600 seconds (CTLA4 constructs) or 1200 seconds (GL1 constructs), and the surface was regenerated by injecting 10 mM glycine, pH 1.7, for 60 seconds. […] Data were analyzed using BiaEvaluation for the T100 software (version 2.0.1, GE Healthcare).

[9] = target: T4, Murine CD86-mIgG (R&D Systems, Inc); assay: SPR (BIAcore T100), murine CD86-mIgG immobilized on CM5; steady-state equilibrium, multiple Rmax fit
Experimental: as §3

[10] = target: T4, Murine CD86-mIgG (R&D Systems, Inc); assay: SPR (BIAcore T100), murine CD86-mIgG immobilized on CM5; bivalent analyte model, second site
Experimental: as §3

[11] = target: T3, CD86 on cells (WIL2-S human …); assay: flow cytometry on HuCD86-2A2 CHO cells with IL10R1-muIg
Experimental: as §2

Binder | koff [1] [s⁻¹] | kon [1] [M⁻¹ s⁻¹] | binding result [4] | Kd [5] [nM] | Second Site ka [6] [s⁻¹] | Second Site kd [6] [s⁻¹] | koff [8] [s⁻¹] | kon [8] [M⁻¹ s⁻¹] | Kd [9] [nM] | Second Site ka [10] [s⁻¹] | Second Site kd [10] [s⁻¹] | binding result [11] | further results
B1 | 0.008 | 190000 | binds | 233 | 0.0045 | 0.015 | – | – | – | – | – | – | Kd [2]: 0.41 nM; koff [3]: 0.00029 s⁻¹
B2 | 0.0145 | 977000 | binds | 37.5 | 0.019 | 0.0434 | 0.0241 | 10400 | 1540 | 0.0398 | 0.0627 | – | binding result [7]: binds
B3 | – | – | – | – | – | – | 0.0386 | 27800 | 2250 | 0.000659 | 0.00311 | – | –
B4 | – | – | – | – | – | – | – | – | – | – | – | binds | –
B5 | – | – | – | – | – | – | – | – | – | – | – | binds | –
B6 | – | – | – | – | – | – | – | – | – | – | – | binds | –
